Results: PubChem BioAssay AID1745845 (National Center for Advancing Translational Sciences (NCATS), 2022)
Several values for one entry are separate records, joined by “and”; a condition that tells them apart may be missing. Equal values may be shown once. About 2,600 (0.72%) of roughly 360,000 compounds were called active. The inconclusive results got no clear call from the source; some entries with a clear call stand among them for comparison. Calls come from the whole dose curve; as a rule, active = well fitted inhibition curve with a large enough effect; inconclusive = small, poorly fitted or top-dose-only effect; inactive = no such curve, though single readings can be large or run the other way. Potencies beside an inconclusive call are fits to weak or partial responses and may not hold up.

Assay: Primary qHTS for Inhibitors of ATXN expression; note: nearly all actives have a fitted effect of over 55% in size
Details: HEK-293 ATXN2-luciferase reporter, luminescence, 24 h; activity change, negative = inhibition: at 57 µM (top of the series)
In short: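 qHTS (up to 57 uM final) was run with 24 h compound exposure of reporter cells at 37 °C. Each well was multiplexed: SteadyGlo luminescence measured ATXN2-luciferase expression after a fluorogenic Gly-Phe-AFC viability readout (25 uM final).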
% is set by controls: 0 for no effect and ±100 for the full control effect; potency is the fitted concentration of half-maximal effect; tags give direction and shape of the fitted curve.

Q: With CCOc1cc(/C=N\Nc2ccc([N+](=O)[O-])cc2)ccc1OCC(=O)Nc1ccc(C)c(C)c1 as the molecule, how does the “activity change, negative = inhibition” value read?
A: inactive: -21.2%

Q: Which “activity change, negative = inhibition” value does the source give for O=S(=O)(c1ccc(Br)cc1)N1CCN(c2cc(-c3ccccc3)nc3ncnn23)CC1 here?
A: inactive: -4.61%

Q: For CCOC(=O)N1CCN(C(=O)C2CCN(C(=O)c3ccccc3C)CC2)CC1, which Potency is on record?
A: inconclusive: 39.8 µM [inhibitor, single point]

Q: With CCCN(CCC)C(=O)CSc1nc2ccccc2c(=O)n1CC1COc2ccccc2O1 (centres undefined) as the molecule, how does the Potency read?
A: inconclusive: 39.8 µM [inhibitor, single point]

Q: With COc1cccc(N2CCN(c3ccc(S(=O)(=O)N4CCN(C)CC4)cc3[N+](=O)[O-])CC2)c1 as the molecule, how does the “activity change, negative = inhibition” value read?
A: inactive: -27.3%

Q: For CCOC(=O)C1=C[C@@H](C(C)(C)C)N(S(=O)(=O)c2ccc(C)cc2)[C@H]1c1cccc(Cl)c1, which Potency is on record?
A: inconclusive: 25.1 µM [inhibitor, partial curve, poor fit]

Q: For Cc1cc(C)c2c(CC(=O)Nc3ccc(S(=O)(=O)N4CCCC(C)C4)cc3)coc2c1 (centres undefined), which “activity change, negative = inhibition” value is on record?
A: inactive: -11.6%

Q: Which Potency does the source give for Cc1cc(SCC(=O)NN)c2cc(Br)ccc2n1 here?
A: inconclusive: 35.5 µM [inhibitor, single point]

Q: Which Potency does the source give for O=C1C2C3C=CC(C4CC34)C2C(=O)N1/N=C/c1ccc([N+](=O)[O-])o1 (centres undefined) here?
A: inconclusive: 39.8 µM [inhibitor, single point]

Q: Which “activity change, negative = inhibition” value does the source give for COc1ccc(NC(=O)c2cc3n(n2)C(C(F)(F)F)CC(c2ccco2)N3)cc1 (centres undefined) here?
A: inactive: -7.41%

Q: With COc1ccc2c(-c3ccc(OCCN4CCCCC4)cc3)c(-c3ccccc3OC)sc2c1 as the molecule, how does the Potency read?
A: inconclusive: 39.8 µM [inhibitor, single point]

Q: Which Potency does the source give for Fc1ccc(C2CC(c3cccs3)=NN2c2ccccc2)cc1 (centres undefined) here?
A: inconclusive: 0.752 µM [inhibitor, partial curve, poor fit]

Q: With O=C(NCc1ccc(Cl)cc1)c1ccc(CSCc2cccc(Cl)c2)o1 as the molecule, how does the Potency read?
A: inconclusive: 31.6 µM [inhibitor, single point]

Q: With Cc1cccc(C)c1OCC(O)CN1CCC(CN2C(=O)c3cccc4cccc(c34)C2=O)CC1 (centres undefined) as the molecule, how does the Potency read?
A: inconclusive: 28.2 µM [inhibitor, single point]

Q: Which Potency does the source give for COc1ccc2cc(C(=O)N/N=C/c3sc4ccccc4c3O)ccc2c1 here?
A: inconclusive: 12.6 µM [inhibitor, partial curve, poor fit]

Q: With CC(=O)Nc1ncnc2c1c(-c1ccc(Cl)cc1)nn2C(C)(C)C as the molecule, how does the Potency read?
A: inconclusive: 10.6 µM [inhibitor, partial curve, poor fit]

Q: With O=c1[nH]c2ccc(NCc3ccc(-c4cccc(Cl)c4)o3)cc2[nH]1 as the molecule, how does the “activity change, negative = inhibition” value read?
A: inactive: -32%

Q: For Cc1nnc(NC(=O)c2sc3ccccc3c2Cl)s1, which Potency is on record?
A: inconclusive: 39.8 µM [inhibitor, single point]

Q: With O=C(CNC(=O)c1ccccc1Br)N/N=C/c1ccccc1O as the molecule, how does the Potency read?
A: inconclusive: 33.6 µM [inhibitor, partial curve, poor fit]

Q: With CC(C)(C)S(=O)N1Cc2cc(C(=O)N[C@@H]3CCN(Cc4ccccc4)C3)nc(-c3cccc(-c4cc5ccccc5o4)c3)c2[C@@H]1CCO (some centres undefined) as the molecule, how does the Potency read?
A: inconclusive: 22.4 µM [inhibitor, partial curve, poor fit]

Q: For CC(C)C[C@H]1COc2cccc(N3CCN(Cc4ccccc4F)CC3)c2S(=O)(=O)N1, which Potency is on record?
A: inconclusive: 14.1 µM [inhibitor, partial curve, poor fit]

Q: For COc1cccc(/C=C/C(=O)Nc2ccc3nc4n(c(=O)c3c2)CCCC4)c1OC, which Potency is on record?
A: inconclusive: 8.44 µM [inhibitor, full curve, poor fit]

Q: With CCOc1cccc(-c2nn3c(-c4cc(C)[nH]n4)nnc3s2)c1 as the molecule, how does the “activity change, negative = inhibition” value read?
A: inactive: 6.39%

Q: For O=c1c2c(-c3ccccc3)csc2nc2c3ccccc3c(NCCN3CCOCC3)nn12, which Potency is on record?
A: inconclusive: 29.9 µM [inhibitor, partial curve, poor fit]

Q: For O=C(c1cc(-c2ccc(Cl)cc2)on1)N1CCCC1, which Potency is on record?
A: inconclusive: 39.8 µM [inhibitor, single point]

Q: For CCN(CC)c1ccc(/C=N/Nc2nc(C)cc(C)n2)cc1, which Potency is on record?
A: inconclusive: 7.94 µM [inhibitor, full curve]

Q: Which “activity change, negative = inhibition” value does the source give for Clc1ccc(COn2nnc3ccccc32)c(Cl)c1 here?
A: inactive: 70%

Q: With CCCCCN1CSC(=S)N(Cc2ccccc2)C1 as the molecule, how does the “activity change, negative = inhibition” value read?
A: inactive: -29.8%

Q: For CCOc1ccccc1Oc1cn[nH]c1-c1ccc(OC)cc1O, which Potency is on record?
A: inconclusive: 35.5 µM [inhibitor, partial curve, poor fit]

Q: Which Potency does the source give for Cc1cccc(NC(=O)c2ccc(S(=O)(=O)N(C)c3ccccc3)cc2)n1 here?
A: inconclusive: 28.2 µM [inhibitor, single point]

Q: With CCN=c1scc(-c2ccc(F)cc2)n1/N=C/c1ccccn1 as the molecule, how does the “activity change, negative = inhibition” value read?
A: inactive: 38.4%

Q: With CCc1nnc(NC(=O)c2nc(S(=O)(=O)Cc3cccc(C)c3)ncc2Cl)s1 as the molecule, how does the Potency read?
A: inconclusive: 39.8 µM [inhibitor, single point]

Q: With O=C(COC(=O)CN1C(=O)C2CCCCC2C1=O)NCc1ccc(Cl)cc1Cl (centres undefined) as the molecule, how does the “activity change, negative = inhibition” value read?
A: inactive: 0.983%

Q: For Cn1c(CN2CCCCC2)nc2cc(NC(=O)c3cccc(Br)c3)ccc21, which Potency is on record?
A: inconclusive: 28.2 µM [inhibitor, partial curve, poor fit] and inconclusive: 15.8 µM [inhibitor, partial curve]

Q: Which Potency does the source give for CCCn1c(SCc2nc(-c3ccccc3C)no2)nnc1-c1ccc(Cl)cc1 here?
A: inconclusive: 39.8 µM [inhibitor, single point]

Q: For Cn1c(SSc2ccc(-c3cccnc3)n2C)ccc1-c1cccnc1, which Potency is on record?
A: inconclusive: 22.4 µM [inhibitor, partial curve]

Q: Which “activity change, negative = inhibition” value does the source give for C[C@H]1CN([C@@H](C)CO)C(=O)CCCn2nncc2CO[C@@H]1CN(C)Cc1ccc(C(F)(F)F)cc1 here?
A: inactive: 7.31%

Q: For Cc1ccc2nc(Cl)c(/C=C/C(=O)c3ccco3)cc2c1, which “activity change, negative = inhibition” value is on record?
A: inactive: 14.9%

Q: Which “activity change, negative = inhibition” value does the source give for CCc1nn(CC(=O)N2CCN(c3cccc(C)c3C)CC2)c(=O)c2cc3occc3n12 here?
A: inactive: -2.27%

Q: For COc1ccc(N=C(N)SCc2ccccn2)cc1, which Potency is on record?
A: inconclusive: 37.7 µM [inhibitor, single point]

Q: With O=C(Nc1cc(Sc2ccccn2)cc([N+](=O)[O-])c1)c1ccc([N+](=O)[O-])cc1 as the molecule, how does the Potency read?
A: inconclusive: 39.8 µM [inhibitor, single point]

Q: Which “activity change, negative = inhibition” value does the source give for O=C(NCc1ccccn1)Nc1cccc(Cl)c1 here?
A: inactive: 47.5%

Q: Which “activity change, negative = inhibition” value does the source give for CN1CCCN(c2ccc([N+](=O)[O-])cc2)CC1 here?
A: inactive: -5.73%

Q: With COc1cc(/C=N/NC(=O)c2ccc(CN3c4cccc5cccc(c45)S3(=O)=O)cc2)cc(OC)c1O as the molecule, how does the Potency read?
A: inconclusive: 39.8 µM [inhibitor, partial curve, poor fit]

Q: Which “activity change, negative = inhibition” value does the source give for O=C1CN(C(=O)Cc2ccc(F)cc2)C(c2ccccc2)c2cc(Br)ccc2N1 (centres undefined) here?
A: inactive: 11%

Q: Which Potency does the source give for COc1ccc(NC(=O)CSc2c3c(nc4cc(Cl)ccc24)CCCC3)cc1OC here?
A: inconclusive: 39.8 µM [inhibitor, single point]

Q: For O=C(NN=Cc1ccc(O)cc1O)c1ccccc1NS(=O)(=O)c1cccs1, which Potency is on record?
A: inconclusive: 22.4 µM [inhibitor, partial curve, poor fit]

Q: Which Potency does the source give for CCCCCC(=O)N1CC2(CC(c3cccc(NC(=O)CC(c4ccccc4)c4ccccc4)c3)=NO2)C[C@@H]1C(N)=O (some centres undefined) here?
A: inconclusive: 39.8 µM [inhibitor, single point]

Q: For CC1=C/C(=N\OS(=O)(=O)c2ccccc2)C(C)=CC1=O, which Potency is on record?
A: active: 22.4 µM

Q: Which Potency does the source give for CC(C)C[C@@H](CN1CCCC1CN1C(=S)NC[C@@H]1Cc1ccc(O)cc1)N1C[C@H](Cc2ccc(O)cc2)N(CC2CCCCC2)C1=S (some centres undefined) here?
A: inconclusive: 39.8 µM [inhibitor, single point]

Q: With OC(CNCC1(N2CCCCC2)CCCCC1)COc1ccc(Cl)cc1Cl (centres undefined) as the molecule, how does the Potency read?
A: inconclusive: 33.6 µM [inhibitor, partial curve, poor fit]

Q: Which Potency does the source give for CC(C)(C)c1ccc(C2Sc3ccccc3NC3=C2C(=O)c2ccccc23)cc1 (centres undefined) here?
A: inconclusive: 39.8 µM [inhibitor, single point]

Q: Which “activity change, negative = inhibition” value does the source give for O=C(Nc1nnc(-c2ccncc2)o1)c1cccc(N2C(=O)CCC2=O)c1 here?
A: inactive: -0.862%

Q: With COc1ccccc1C(CNC(=O)CN1C(=O)NC(C)(c2ccc3ccccc3c2)C1=O)N1CCCC1 (centres undefined) as the molecule, how does the “activity change, negative = inhibition” value read?
A: inactive: -12.8%

Q: With CCN1CCN(C(=O)c2ccccc2N(Cc2ccccc2)S(C)(=O)=O)CC1 as the molecule, how does the “activity change, negative = inhibition” value read?
A: inactive: 4.23%

Q: For CCCCC[C@@H](C)N1C[C@H](COCc2ccccc2)Oc2cc(N3CC[C@H](N(C)C)C3)ccc2S1(=O)=O, which Potency is on record?
A: inconclusive: 31.6 µM [inhibitor, single point]

Q: With COc1ccc(NC(=O)Nc2cccc(OC)c2)cc1 as the molecule, how does the “activity change, negative = inhibition” value read?
A: inactive: 87.9%

Q: With CCc1nn(C(C)C(=O)NCCN2CCN(c3cccc(C)c3C)CC2)c(=O)c2cc3occc3n12 (centres undefined) as the molecule, how does the Potency read?
A: inconclusive: 11.2 µM [inhibitor, partial curve, poor fit]

Q: Which Potency does the source give for O=C(C1CC(=O)N(c2ccc3c(c2)OCCO3)C1)N1CCN(c2ccccc2)CC1 (centres undefined) here?
A: inconclusive: 16.8 µM [inhibitor, partial curve, poor fit]

Q: With CCCNC(=O)c1cc2nc(-c3ccc(Br)cc3)cc(C(F)(F)F)n2n1 as the molecule, how does the “activity change, negative = inhibition” value read?
A: inactive: -12.7%

Q: With CCCCCCn1c(COc2ccccc2F)nnc1SCC(=O)N1c2ccccc2NC(=O)C1(C)C as the molecule, how does the Potency read?
A: inconclusive: 39.8 µM [inhibitor, single point]

Q: For COc1ccc(CCN2C(=O)COc3ccccc3C2C(=O)Nc2ccc3c(c2)OCCO3)cc1OC (centres undefined), which Potency is on record?
A: inconclusive: 31.6 µM [inhibitor, single point]

Q: With CCOc1ccc(-n2c(SCc3nc(-c4ccc(OC)cc4)no3)nnc2-c2ccncc2)cc1 as the molecule, how does the Potency read?
A: inconclusive: 20 µM [inhibitor, partial curve, poor fit]

Q: Which Potency does the source give for Cc1csc(NC(=O)CSc2nnc3c4ccccc4nc(C(C)(C)C)n23)n1 here?
A: inconclusive: 12.6 µM [inhibitor, partial curve]
